# Experimental data taken from ChEMBL document CHEMBL4888484, “Replenishing the malaria drug discovery pipeline: Screening and hit evaluation of the MMV Hit Generation Library 1 (HGL1) against asexual blood stage Plasmodium falciparum ,using a nano luciferase reporter read-out” (2022).
# Screen size: about 150,000 compounds; about 540 (0.36%) showed an effect of 50% or more. This is one part of the list.
# Test system: Plasmodium falciparum
# Assay: Primary screen in NF54 nanoGlo assay, in single point, at 2uM, 72h; a lower Z score goes with more inhibition
# Assay type: functional, Erythrocyte
# Conditions: timepoint 72 hour
Compound,% Inhibition,Z score
Cc1cc(C)nc(CNC(=O)N2CCC[C@@H]2C(N)=O)n1,-2%,0.47
CCNc1nc(C)c(C(=O)N[C@@H]2[C@H]3CCO[C@H]3[C@H]2Cc2ccccc2)s1,3%,-0.38
O=C(c1cc(-c2cccnc2)nc2ccccc12)N1CCN(Cc2ccc3c(c2)OCO3)CC1,2%,-0.33
COCCn1cncc1Cn1cnc(-c2ccccc2)c1-c1cccc2nonc12,10%,-1.24
O=C(NCCCN1CCCCC1)c1ccc(CN2C(=O)CCn3nc(-c4cccc(Cl)c4)cc32)cc1,14%,-1.57
CCc1ncnc(O[C@H]2CCN(S(=O)(=O)c3ccc(F)cc3C)C2)c1F,5%,-0.74
Cc1c(Br)c(C(F)F)nn1CC(=O)NCCCN1CCOCC1,28%,-3.83
COc1ccnc(NC(=O)c2ccnn2C(C)C)c1C#N,-13%,2.29
Cc1c(-c2nnc(C(=O)NCc3ccc(Cl)cc3)o2)oc2ccccc12,18%,-2.12
CCC(Cc1ccc(F)cc1)NC(=O)N1C[C@@H](c2nnc(C)o2)O[C@@H](C)C1 (some centres undefined),-13%,1.71
Cc1ccc(C)c(-c2cc(C(=O)N3CC(F)(F)C[C@H]3COc3ccncc3)[nH]n2)c1,-6%,1.03
CC1(c2nc(Cc3cncs3)no2)CCC(=O)CC1,5%,-0.78
O=C(Nc1ccc2c(c1)OCCO2)c1[nH]nnc1-c1ccc(F)cc1,11%,-2.1
COC(=O)c1ccc(-c2noc(CN3CCCC[C@H](O)C3=O)n2)cc1,-9%,1.24
Cc1cc(Br)ccc1NC(=O)C1CCN(c2cc(C(F)(F)F)ncn2)CC1,-1%,0.07
OCC[C@H](NCC(F)(F)F)c1ccccc1,1%,-0.18
Cc1nc(CN2CCC3(CC2)C[C@@H](c2ccccc2)C(=O)N(C2CC2)C3)no1,1%,-0.09
COCCCN1CC(=O)N[C@@H]2CN(C(=O)CN(C)C)CC[C@@H]2OCc2cccc(c2)Oc2ccc(cc2OC)CCC1=O,1%,-0.19
O=C1NCCN(C(=O)c2cnc(-c3cccnc3)nc2)[C@H]1Cc1ccccc1,-1%,0.15
CN(CCO)C(=O)C(=O)Nc1cccc(CC(F)(F)F)c1,-11%,2.21
CC1=C(c2ccccc2)[C@H]1C(=O)NCc1cc(C2CC2)[nH]n1,-3%,0.54
CC(C)(CN1CCC(OCc2ccc(F)cc2)CC1)S(C)(=O)=O,1%,-0.09
